# Measured values: PubChem BioAssay AID2202238 (Ras Initiative Chemistry Research Team, Frederick National …, 2025)
# The whole screen tested about 2,200 compounds, of which fewer than 10 were called active. Some of the results follow. Entries without a call are filed as inconclusive in the source.
# Target: GTPase KRas (Homo sapiens) (UniProt P01116)
# Test: Cysteine mutants labelled by reactive fragments (mass read-out) (AID 2202238)
# Set-up: protein at 5 µM with 500 µM competing thiol for 1.5 h
# Conditions: KRAS G12D cysteine mutants, disulfide tethering, MALDI-TOF labeling; stronger effect = higher value; H27C mutant labeling; fragment at 500 µM
# Sequence of UniProt P01116 (P01116 whole entry, looked up, the tested form may be a part): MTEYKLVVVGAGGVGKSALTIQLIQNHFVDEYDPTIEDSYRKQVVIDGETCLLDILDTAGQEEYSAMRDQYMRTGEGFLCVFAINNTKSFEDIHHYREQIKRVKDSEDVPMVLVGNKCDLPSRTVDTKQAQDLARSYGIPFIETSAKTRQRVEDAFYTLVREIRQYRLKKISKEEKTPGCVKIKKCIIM
row,SMILES,percent labeling [%]
1,CC(C)Cn1ncc2cc(C(=O)NCCS)cnc21,31.8
2,O=C(CCS)N1CCN(c2ncnc3c2oc2ccccc23)CC1,39.7
3,O=C(CCS)NCC1(c2cccc(Cl)c2)CC1,22.4
4,O=C(CCS)NCc1cc(OC2CCC2)ccn1,33.1
5,O=C(CCS)NCc1cccc(OC(F)F)c1,37.3
6,O=C(CCS)N1CCC(Oc2ccc3nccn3c2)CC1,57.4
7,Cc1ccc(C2CCC(NC(=O)CCS)CC2)cc1 (stereo not given),20.6
8,O=C(CCS)NC1(Cc2ccccc2F)CCCCC1,24.3
9,Cc1c(NC(=O)CCS)cnn1CC(F)F,36.8
10,O=C(NCCS)c1ccc(-n2cccn2)c(F)c1,28.3
11,O=C(Cn1c2ccccc2c(=O)c2ccccc21)NCCS,27.3
12,CCOC(=O)C12CC(C)(C1)OC21CCN(C(=O)CCS)CC1,39
13,CC1(C)CN(C(=O)CCS)c2cc(F)ccc21,27
14,Cn1nc(C(F)(F)F)cc1-c1ccc(NC(=O)CCS)cc1,23
15,CN1CCN(C(=O)CCS)CCC12CCOCC2,36.4
16,CCC(=O)Nc1cccc(NC(=O)CCS)c1C,33.4
17,O=C(Cn1cccc(C(F)(F)F)c1=O)NCCS,34.6
18,CC(=O)NCC1CCn2ncc(C(=O)NCCS)c2C1 (stereo not given),36.1
19,O=C(Cc1cnn(Cc2ccccc2)c1)NCCS,28.1
20,Cc1nn(C)c(C)c1C(CC(=O)NCCS)C(F)(F)F (stereo not given),27
21,O=C(CC(n1ccnc1)C(F)(F)F)NCCS (stereo not given),22.3
22,O=C(CCS)N1CC2C(C(F)(F)F)(C1)CS2(=O)=O (stereo not given),40.5
23,O=C(NCCS)C(c1ccccc1)n1cccn1 (stereo not given),35.4

row,SMILES,percent labeling [%]
1,O=C(NCCS)c1c[nH]c(=O)c(Br)c1,45.4
2,CCOc1ncc(C(=O)NCCS)cc1Cl,25.9
3,O=C(NCCS)C(Oc1ccc(Br)cc1Cl)c1ccccc1 (stereo not given),18.6
4,Cc1cc2c(o1)CC(C)(C)CC2NC(=O)CCS (stereo not given),23.1
5,CC(=O)NC(CC(=O)NCCS)c1ccc(F)cc1F (stereo not given),32.9
6,CCc1nn(C)c(OC)c1CNC(=O)CCS,29.9
7,O=C1CC(Cc2ccc(C(=O)NCCS)cc2)C(=O)N1 (stereo not given),43.1
8,O=C(Cc1csc(-c2sccc2Br)n1)NCCS,22
9,CN1C(=O)CCC(C(=O)NCCS)C1c1ccccc1 (stereo not given),34.8
10,O=C(CCS)NCc1ncc(-c2ccc(F)cc2)[nH]1,36.7
11,COC(=O)c1cc2c(n1C)CCN(C(=O)CCS)C2,40.7
12,O=C(CCS)NCCc1noc2ccccc12,34.6
13,CC(=O)NC(Cc1ccc2c(c1)OCO2)C(=O)NCCS (stereo not given),41.7
14,O=C(NCCS)C1CCCN(C(=O)c2ccc3[nH]ncc3c2)C1 (stereo not given),36.9
15,Cc1ccc(NC(=O)CCS)cc1NC(=O)CCN(C)C,67.3
16,Cc1cc(C)nc(-n2[nH]c(C(=O)NCCS)cc2=O)n1,20.4
17,COc1ccccc1Nc1ccc(C(=O)NCCS)cc1,28
18,Cn1nccc1C1(CNC(=O)CCS)CC1,32.7
19,CC1(C)CN(C2(CNC(=O)CCS)CCCCC2)CCO1,41.3
20,COc1ccc(-c2noc(C(=O)NCCNC(=O)CCS)n2)cc1,26.3
21,CC1(C)CCc2cc(NC(=O)CCS)ccc2O1,29.8
22,CC1Cc2ccccc2N1Cc1occc1C(=O)NCCS (stereo not given),11.1
23,Cc1cc(C(=O)NCCS)[nH]c1C,27.4

row,SMILES,percent labeling [%]
1,CC(Cc1cnc2ccccc2n1)C(=O)NCCS (stereo not given),28
2,O=C(CCS)NC1CCN(c2c(F)cccc2F)C1 (stereo not given),27.3
3,O=C(NCCS)c1cc(COc2ccccc2F)on1,31.7
4,COc1cc(OC)c2[nH]c(C(=O)NCCS)cc2c1,22.9
5,CCCn1c(=O)n(CCC(=O)NCCS)c2ccccc21,36.3
6,O=C(CCS)Nc1ccc(Oc2ccc(Cl)cc2)cn1,33.8
7,Cc1ccc(CC2CN(C(=O)CCS)C2)cc1,42.1
8,O=C1NCCN(C(=O)CCS)C1c1ccccc1 (stereo not given),33.9
9,Cc1ccc(CN(C)C)cc1NC(=O)CCS,50.5
10,O=C(NCCS)c1cn(CCO)c(=O)[nH]c1=O,42.8
11,O=C(NCCS)c1cccn1Cc1ccccc1Cl,32.6
12,COc1ccc(OCCN2CCN(C(=O)CCS)CC2)cc1,40.6
13,Cc1cc(Br)ccc1NC(=O)CNC(=O)CCS,30.2
14,O=C(NCCS)C1CCC2(CC1)COCCO2 (stereo not given),32
15,O=C(NCCS)c1cccn1-c1c(Cl)cccc1Cl,34.1
16,CCn1ccnc1C1CCCCN1C(=O)CCS (stereo not given),38.3
17,O=C(NCCS)c1ccc(Br)cc1-n1cnnn1,27.6
18,O=C(CCS)NC1CCN(Cc2c[nH]c3ncccc23)CC1,43
19,CN(Cc1ccco1)C(=O)NCC(=O)NCCS,21.5
20,O=C(CCS)N1CCN(Cc2cc3ccccc3o2)CC1,43.6
21,Cc1nn(C)c2nc(-c3ccccc3)cc(C(=O)NCCS)c12,37.9
22,O=C(CCS)N1CCOCC1c1ncn(Cc2ccccc2)n1 (stereo not given),39.5
23,O=C(CCS)NCC(=O)Nc1cccc2cccnc12,30.4

row,SMILES,percent labeling [%]
1,Cc1nn(CC(=O)NCCS)c2nc(C(C)C)cc(C(F)(F)F)c12,11.1
2,Cn1ncc2cc(CNC(=O)CCS)cnc21,33.2
3,COc1ccc2c(C)c(CCC(=O)NCCS)c(=O)oc2c1,31.8
4,Cc1cc(N2CC(NC(=O)CCS)C2)cc(=O)o1,38.9
5,O=C(NCCS)c1ccc(=O)n(-c2ccccc2F)c1,47.4
6,Cc1nc2c(c(C)c1CC(=O)NCCS)c(=O)[nH]n2C,31
7,CN(CCCc1cc(-c2ccccc2)n(C)n1)C(=O)CCS,41.1
8,O=C(NCCS)C1CC(=O)N(Cc2ccc(F)cc2F)C1 (stereo not given),37.7
9,Cc1nc2nc[nH]n2c(=O)c1CCC(=O)NCCS,21.7
10,O=C(CN1C(=O)NC(c2cccs2)(C2CC2)C1=O)NCCS (stereo not given),27.8
11,O=C(COC(c1ccccc1)c1ccccc1)NCCS,24
12,CN1C(=O)CCc2cc(C(=O)NCCS)ccc21,45.7
13,CN(C)C(C(=O)NCCS)c1ccc(Cl)cc1 (stereo not given),4.5
14,O=C(NCCS)c1ccn(Cc2ccccc2)c1,38.1
15,O=C(CCS)NCCn1c(=O)[nH]c2cccnc21,32.9
16,O=C(NCCS)c1cccc2cnccc12,51
17,Cc1nc(-c2c(C)noc2C)sc1C(=O)NCCS,36
18,O=C(NCCS)c1ccc(C(=O)N2CCOCC2)cc1,40.4
19,Cn1cc(C(=O)NCCS)c(C(F)(F)F)c1,38.6
20,O=C(Cn1cnc2ccc(Br)cc2c1=O)NCCS,25.8
21,O=C(CCS)Nc1cn(CCOCC(F)(F)F)nc1-c1ccccn1,22.4
